# The list shows a part of the results.
# B1: Arath Fbox LD (Arabidopsis thaliana) (protein)
# chain: EFSVWLEKASGKRCLMLSAMNLSIIWGDNPQYWQWIPIPESRFEKVAKLRDVCWFEIRGRTNTRVLSPRTRYSAYIVFKGVDKCYGFQNVAIEAAVGVVGQEPSRRLICFSEAIRRGRRNVVKPKQREDGWMEIELGEFFNDGGIMDNDEIEMSALETKQLNRKCGLIIQGIEIRPAKILAAASFLEQKLISEEDLNSAVDHHHHHH
# Assays:
# Assay in all cases: glycan array binding signal (z-score within array); higher = stronger binding
# Settings in all cases: glycan notation: IUPAC condensed, linker removed
# [1] = target: Neu5Ac(a2-3)Gal(b1-4)GlcNAc(b1-2)[Neu5Ac(a2-3)Gal(b1-4)GlcNAc(b1-4)]Man(a1-3)[GlcNAc(b1-4)][Neu5Ac(a2-3)Gal(b1-4)GlcNAc(b1-4)Man(a1-6)]Man(b1-4)GlcNAc(b1-4)GlcNAc
# In short: (§1)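 Glycan array binding is given as a within-array Z-score, which can be read as non-binding when negative. The arrays, 3228 of them, came from the Consortium for Functional Glycomics database and were retained only where the protein sequence was available. Z-scores were averaged across arrays of the same protein sequence at different concentrations or buffers and across linkers.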
# [2] = target: Neu5Ac(a2-3)Gal(b1-4)GlcNAc(b1-2)[Neu5Ac(a2-3)Gal(b1-4)GlcNAc(b1-6)]Man(a1-6)[Neu5Ac(a2-3)Gal(b1-4)GlcNAc(b1-2)Man(a1-3)]Man(b1-4)GlcNAc(b1-4)GlcNAc
# In short: as §1
# [3] = target: Neu5Ac(a2-3)Gal(b1-4)GlcNAc(b1-2)[Neu5Ac(a2-3)Gal(b1-4)GlcNAc(b1-6)]Man(a1-6)[Neu5Ac(a2-3)Gal(b1-4)GlcNAc(b1-2)Man(a1-3)][GlcNAc(b1-4)]Man(b1-4)GlcNAc(b1-4)GlcNAc
# In short: as §1
# [4] = target: Neu5Ac(a2-3)Gal(b1-4)GlcNAc(b1-3)Gal
# In short: as §1
# [5] = target: Neu5Ac(a2-3)Gal(b1-4)GlcNAc(b1-3)Gal(b1-3)GlcNAc
# In short: as §1
# [6] = target: Neu5Ac(a2-3)Gal(b1-4)GlcNAc(b1-3)Gal(b1-4)GlcNAc
# In short: as §1
# [7] = target: Neu5Ac(a2-3)Gal(b1-4)GlcNAc(b1-3)Gal(b1-4)GlcNAc(b1-2)Man(a1-3)[Neu5Ac(a2-3)Gal(b1-4)GlcNAc(b1-3)Gal(b1-4)GlcNAc(b1-2)Man(a1-6)]Man(b1-4)GlcNAc(b1-4)GlcNAc
# In short: as §1
# [8] = target: Neu5Ac(a2-3)Gal(b1-4)GlcNAc(b1-3)Gal(b1-4)GlcNAc(b1-3)Gal(b1-4)GlcNAc
# In short: as §1
# [9] = target: Neu5Ac(a2-3)Gal(b1-4)GlcNAc(b1-3)Gal(b1-4)GlcNAc(b1-3)Gal(b1-4)GlcNAc(b1-2)Man(a1-3)[Neu5Ac(a2-3)Gal(b1-4)GlcNAc(b1-3)Gal(b1-4)GlcNAc(b1-3)Gal(b1-4)GlcNAc(b1-2)Man(a1-6)]GalNAc
# In short: as §1
# [10] = target: Neu5Ac(a2-3)Gal(b1-4)GlcNAc(b1-3)Gal(b1-4)GlcNAc(b1-3)GalNAc
# In short: as §1
# [11] = target: Neu5Ac(a2-3)Gal(b1-4)GlcNAc(b1-3)Gal(b1-4)GlcNAc(b1-3)[Neu5Ac(a2-3)Gal(b1-4)GlcNAc(b1-3)Gal(b1-4)GlcNAc(b1-6)]GalNAc
# In short: as §1
# [12] = target: Neu5Ac(a2-3)Gal(b1-4)GlcNAc(b1-3)Gal(b1-4)GlcNAc(b1-6)[Gal(b1-3)]GalNAc
# In short: as §1
# [13] = target: Neu5Ac(a2-3)Gal(b1-4)GlcNAc(b1-3)Gal(b1-4)[Fuc(a1-3)]GlcNAc
# In short: as §1
# [14] = target: Neu5Ac(a2-3)Gal(b1-4)GlcNAc(b1-3)GalNAc
# In short: as §1
# [15] = target: Neu5Ac(a2-3)Gal(b1-4)GlcNAc(b1-3)[Neu5Ac(a2-3)Gal(b1-4)GlcNAc(b1-6)]GalNAc
# In short: as §1
# [16] = target: Neu5Ac(a2-3)Gal(b1-4)GlcNAc(b1-6)GalNAc
# In short: as §1
# [17] = target: Neu5Ac(a2-3)Gal(b1-4)GlcNAc(b1-6)[Gal(b1-3)]GalNAc
# In short: as §1
# [18] = target: Neu5Ac(a2-3)Gal(b1-4)GlcNAc(b1-6)[Neu5Ac(a2-3)Gal(b1-3)]GalNAc
# In short: as §1
# [19] = target: Neu5Ac(a2-3)Gal(b1-4)GlcNAc6S
# In short: as §1
# [20] = target: Neu5Ac(a2-3)Gal(b1-4)[Fuc(a1-3)]GlcNAc
# In short: as §1
# [21] = target: Neu5Ac(a2-3)Gal(b1-4)[Fuc(a1-3)]GlcNAc(b1-2)Man
# In short: as §1
# [22] = target: Neu5Ac(a2-3)Gal(b1-4)[Fuc(a1-3)]GlcNAc(b1-3)Gal
# In short: as §1
# [23] = target: Neu5Ac(a2-3)Gal(b1-4)[Fuc(a1-3)]GlcNAc(b1-3)Gal(b1-4)GlcNAc
# In short: as §1
# [24] = target: Neu5Ac(a2-3)Gal(b1-4)[Fuc(a1-3)]GlcNAc(b1-3)Gal(b1-4)[Fuc(a1-3)]GlcNAc(b1-3)Gal(b1-4)[Fuc(a1-3)]GlcNAc
# In short: as §1
# [25] = target: Neu5Ac(a2-3)Gal(b1-4)[Fuc(a1-3)]GlcNAc(b1-3)GalNAc
# In short: as §1
# [26] = target: Neu5Ac(a2-3)Gal(b1-4)[Fuc(a1-3)]GlcNAc(b1-6)[Gal(b1-3)]GalNAc
# In short: as §1
# [27] = target: Neu5Ac(a2-3)Gal(b1-4)[Fuc(a1-3)]GlcNAc(b1-6)[Neu5Ac(a2-3)Gal(b1-3)]GalNAc
# In short: as §1
# [28] = target: Neu5Ac(a2-3)Gal(b1-4)[Fuc(a1-3)]GlcNAc6S
# In short: as §1
# [29] = target: Neu5Ac(a2-3)Gal6S(b1-4)GlcNAc
# In short: as §1
# [30] = target: Neu5Ac(a2-3)Gal6S(b1-4)[Fuc(a1-3)]GlcNAc
# In short: as §1
# [31] = target: Neu5Ac(a2-3)GalNAc
# In short: as §1
# [32] = target: Neu5Ac(a2-3)GalNAc(b1-4)GlcNAc
# In short: as §1
# [33] = target: Neu5Ac(a2-3)[GalNAc(b1-4)]Gal(b1-4)Glc
# In short: as §1
# [34] = target: Neu5Ac(a2-3)[GalNAc(b1-4)]Gal(b1-4)GlcNAc
# In short: as §1
# [35] = target: Neu5Ac(a2-3)[GalNAc(b1-4)]Gal(b1-4)GlcNAc(b1-3)GalNAc
# In short: as §1
# [36] = target: Neu5Ac(a2-3)[Neu5Ac(a2-6)]GalNAc
# In short: as §1
# [37] = target: Neu5Ac(a2-6)Gal
# In short: as §1
# [38] = target: Neu5Ac(a2-6)Gal(b1-3)GlcNAc(b1-3)[Gal(b1-4)GlcNAc(b1-6)]Gal(b1-4)Glc
# In short: as §1
# [39] = target: Neu5Ac(a2-6)Gal(b1-4)Glc
# In short: as §1
# [40] = target: Neu5Ac(a2-6)Gal(b1-4)GlcNAc
# In short: as §1
# [41] = target: Neu5Ac(a2-6)Gal(b1-4)GlcNAc(b1-2)Man
# In short: as §1
# [42] = target: Neu5Ac(a2-6)Gal(b1-4)GlcNAc(b1-2)Man(a1-3)Man(b1-4)GlcNAc(b1-4)GlcNAc
# In short: as §1
# [43] = target: Neu5Ac(a2-6)Gal(b1-4)GlcNAc(b1-2)Man(a1-3)[Gal(b1-4)GlcNAc(b1-2)Man(a1-6)]Man(b1-4)GlcNAc(b1-4)GlcNAc
# In short: as §1
# [44] = target: Neu5Ac(a2-6)Gal(b1-4)GlcNAc(b1-2)Man(a1-3)[GlcNAc(b1-2)Man(a1-6)]Man(b1-4)GlcNAc(b1-4)GlcNAc
# In short: as §1
# [45] = target: Neu5Ac(a2-6)Gal(b1-4)GlcNAc(b1-2)Man(a1-3)[GlcNAc(b1-4)][Neu5Ac(a2-6)Gal(b1-4)GlcNAc(b1-2)Man(a1-6)]Man(b1-4)GlcNAc(b1-4)GlcNAc
# In short: as §1
binder,measurement,setting,value
B1,glycan array binding signal (z-score),[1],-0.391
same,glycan array binding signal (z-score),[2],-0.147
same,glycan array binding signal (z-score),[3],-0.407
same,glycan array binding signal (z-score),[4],0.044
same,glycan array binding signal (z-score),[5],-0.462
same,glycan array binding signal (z-score),[6],-0.587
same,glycan array binding signal (z-score),[7],-0.462
same,glycan array binding signal (z-score),[8],-0.482
same,glycan array binding signal (z-score),[9],-0.519
same,glycan array binding signal (z-score),[10],-0.37
same,glycan array binding signal (z-score),[11],-0.631
same,glycan array binding signal (z-score),[12],-0.439
same,glycan array binding signal (z-score),[13],-0.548
same,glycan array binding signal (z-score),[14],-0.605
same,glycan array binding signal (z-score),[15],-0.595
same,glycan array binding signal (z-score),[16],-0.388
same,glycan array binding signal (z-score),[17],-0.599
same,glycan array binding signal (z-score),[18],-0.499
same,glycan array binding signal (z-score),[19],2.19
same,glycan array binding signal (z-score),[20],-0.514
same,glycan array binding signal (z-score),[21],-0.353
same,glycan array binding signal (z-score),[22],-0.477
same,glycan array binding signal (z-score),[23],-0.229
same,glycan array binding signal (z-score),[24],-0.474
same,glycan array binding signal (z-score),[25],-0.289
same,glycan array binding signal (z-score),[26],-0.099
same,glycan array binding signal (z-score),[27],-0.61
same,glycan array binding signal (z-score),[28],-0.349
same,glycan array binding signal (z-score),[29],0.922
same,glycan array binding signal (z-score),[30],-0.626
same,glycan array binding signal (z-score),[31],-0.421
same,glycan array binding signal (z-score),[32],-0.59
same,glycan array binding signal (z-score),[33],-0.091
same,glycan array binding signal (z-score),[34],-0.521
same,glycan array binding signal (z-score),[35],-0.387
same,glycan array binding signal (z-score),[36],-0.019
same,glycan array binding signal (z-score),[37],2.83
same,glycan array binding signal (z-score),[38],-0.592
same,glycan array binding signal (z-score),[39],0.791
same,glycan array binding signal (z-score),[40],-0.052
same,glycan array binding signal (z-score),[41],-0.264
same,glycan array binding signal (z-score),[42],-0.022
same,glycan array binding signal (z-score),[43],-0.363
same,glycan array binding signal (z-score),[44],-0.265
same,glycan array binding signal (z-score),[45],0.252

# — the supplement of paper PMC8728848
